Binding data for three substances are collected here from PMC12559291.

By UniProt entry, the sequences of proteins in these tests, tags left out. Where a name states a change or a piece, a line headed by the entry shows the natural chain unless it says otherwise.
UniProt P17931: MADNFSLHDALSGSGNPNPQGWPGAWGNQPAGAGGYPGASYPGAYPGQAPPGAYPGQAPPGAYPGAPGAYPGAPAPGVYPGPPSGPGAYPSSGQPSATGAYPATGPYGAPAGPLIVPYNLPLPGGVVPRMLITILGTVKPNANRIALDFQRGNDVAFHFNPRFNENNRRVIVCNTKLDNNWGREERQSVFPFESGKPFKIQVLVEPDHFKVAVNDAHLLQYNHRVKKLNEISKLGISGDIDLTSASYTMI
UniProt P08648: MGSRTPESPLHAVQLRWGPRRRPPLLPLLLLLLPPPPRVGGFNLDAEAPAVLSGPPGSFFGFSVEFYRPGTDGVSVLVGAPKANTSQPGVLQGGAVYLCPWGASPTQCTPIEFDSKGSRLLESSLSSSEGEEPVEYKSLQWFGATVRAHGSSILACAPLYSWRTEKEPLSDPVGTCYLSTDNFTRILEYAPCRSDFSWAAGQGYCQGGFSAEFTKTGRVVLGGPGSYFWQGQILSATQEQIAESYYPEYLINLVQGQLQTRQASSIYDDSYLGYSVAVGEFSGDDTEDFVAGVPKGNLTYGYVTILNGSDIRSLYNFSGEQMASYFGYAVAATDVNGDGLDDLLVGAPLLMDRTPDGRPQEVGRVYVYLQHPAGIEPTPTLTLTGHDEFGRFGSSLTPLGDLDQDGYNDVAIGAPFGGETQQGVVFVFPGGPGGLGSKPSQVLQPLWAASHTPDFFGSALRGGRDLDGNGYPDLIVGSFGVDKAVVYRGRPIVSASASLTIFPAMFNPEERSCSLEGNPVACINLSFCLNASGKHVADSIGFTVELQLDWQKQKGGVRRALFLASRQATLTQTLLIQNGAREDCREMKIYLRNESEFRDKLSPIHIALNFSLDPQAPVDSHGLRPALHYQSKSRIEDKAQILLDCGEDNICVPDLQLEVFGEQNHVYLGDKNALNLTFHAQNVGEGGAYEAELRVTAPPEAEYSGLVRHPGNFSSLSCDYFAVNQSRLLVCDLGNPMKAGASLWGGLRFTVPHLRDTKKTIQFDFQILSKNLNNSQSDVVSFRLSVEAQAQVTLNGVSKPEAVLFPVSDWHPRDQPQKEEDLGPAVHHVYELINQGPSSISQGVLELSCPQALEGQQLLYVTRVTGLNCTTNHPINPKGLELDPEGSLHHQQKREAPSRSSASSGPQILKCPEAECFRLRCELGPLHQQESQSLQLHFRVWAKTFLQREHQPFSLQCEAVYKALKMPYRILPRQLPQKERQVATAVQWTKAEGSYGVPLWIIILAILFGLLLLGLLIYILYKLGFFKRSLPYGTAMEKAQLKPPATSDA
UniProt P05556: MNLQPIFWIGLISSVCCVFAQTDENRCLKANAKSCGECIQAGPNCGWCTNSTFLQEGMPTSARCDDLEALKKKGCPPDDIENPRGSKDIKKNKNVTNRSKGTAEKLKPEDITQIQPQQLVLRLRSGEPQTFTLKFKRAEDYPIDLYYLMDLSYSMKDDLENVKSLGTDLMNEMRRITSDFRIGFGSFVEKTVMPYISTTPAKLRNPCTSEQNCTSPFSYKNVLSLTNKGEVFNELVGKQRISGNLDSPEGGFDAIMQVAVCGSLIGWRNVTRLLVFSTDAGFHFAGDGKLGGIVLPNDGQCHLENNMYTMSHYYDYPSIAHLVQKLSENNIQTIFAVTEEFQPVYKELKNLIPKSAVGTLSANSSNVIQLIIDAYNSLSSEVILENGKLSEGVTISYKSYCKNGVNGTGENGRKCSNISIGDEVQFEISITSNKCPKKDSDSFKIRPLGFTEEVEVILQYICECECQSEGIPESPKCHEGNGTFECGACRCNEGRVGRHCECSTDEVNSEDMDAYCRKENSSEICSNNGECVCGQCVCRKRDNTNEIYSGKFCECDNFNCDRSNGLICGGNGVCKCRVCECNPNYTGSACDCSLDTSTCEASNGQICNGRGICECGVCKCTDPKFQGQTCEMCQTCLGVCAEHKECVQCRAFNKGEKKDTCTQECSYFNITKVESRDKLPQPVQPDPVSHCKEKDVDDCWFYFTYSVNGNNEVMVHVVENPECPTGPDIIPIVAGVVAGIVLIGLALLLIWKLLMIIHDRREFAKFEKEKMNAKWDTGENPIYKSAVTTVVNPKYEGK
UniProt Q00610: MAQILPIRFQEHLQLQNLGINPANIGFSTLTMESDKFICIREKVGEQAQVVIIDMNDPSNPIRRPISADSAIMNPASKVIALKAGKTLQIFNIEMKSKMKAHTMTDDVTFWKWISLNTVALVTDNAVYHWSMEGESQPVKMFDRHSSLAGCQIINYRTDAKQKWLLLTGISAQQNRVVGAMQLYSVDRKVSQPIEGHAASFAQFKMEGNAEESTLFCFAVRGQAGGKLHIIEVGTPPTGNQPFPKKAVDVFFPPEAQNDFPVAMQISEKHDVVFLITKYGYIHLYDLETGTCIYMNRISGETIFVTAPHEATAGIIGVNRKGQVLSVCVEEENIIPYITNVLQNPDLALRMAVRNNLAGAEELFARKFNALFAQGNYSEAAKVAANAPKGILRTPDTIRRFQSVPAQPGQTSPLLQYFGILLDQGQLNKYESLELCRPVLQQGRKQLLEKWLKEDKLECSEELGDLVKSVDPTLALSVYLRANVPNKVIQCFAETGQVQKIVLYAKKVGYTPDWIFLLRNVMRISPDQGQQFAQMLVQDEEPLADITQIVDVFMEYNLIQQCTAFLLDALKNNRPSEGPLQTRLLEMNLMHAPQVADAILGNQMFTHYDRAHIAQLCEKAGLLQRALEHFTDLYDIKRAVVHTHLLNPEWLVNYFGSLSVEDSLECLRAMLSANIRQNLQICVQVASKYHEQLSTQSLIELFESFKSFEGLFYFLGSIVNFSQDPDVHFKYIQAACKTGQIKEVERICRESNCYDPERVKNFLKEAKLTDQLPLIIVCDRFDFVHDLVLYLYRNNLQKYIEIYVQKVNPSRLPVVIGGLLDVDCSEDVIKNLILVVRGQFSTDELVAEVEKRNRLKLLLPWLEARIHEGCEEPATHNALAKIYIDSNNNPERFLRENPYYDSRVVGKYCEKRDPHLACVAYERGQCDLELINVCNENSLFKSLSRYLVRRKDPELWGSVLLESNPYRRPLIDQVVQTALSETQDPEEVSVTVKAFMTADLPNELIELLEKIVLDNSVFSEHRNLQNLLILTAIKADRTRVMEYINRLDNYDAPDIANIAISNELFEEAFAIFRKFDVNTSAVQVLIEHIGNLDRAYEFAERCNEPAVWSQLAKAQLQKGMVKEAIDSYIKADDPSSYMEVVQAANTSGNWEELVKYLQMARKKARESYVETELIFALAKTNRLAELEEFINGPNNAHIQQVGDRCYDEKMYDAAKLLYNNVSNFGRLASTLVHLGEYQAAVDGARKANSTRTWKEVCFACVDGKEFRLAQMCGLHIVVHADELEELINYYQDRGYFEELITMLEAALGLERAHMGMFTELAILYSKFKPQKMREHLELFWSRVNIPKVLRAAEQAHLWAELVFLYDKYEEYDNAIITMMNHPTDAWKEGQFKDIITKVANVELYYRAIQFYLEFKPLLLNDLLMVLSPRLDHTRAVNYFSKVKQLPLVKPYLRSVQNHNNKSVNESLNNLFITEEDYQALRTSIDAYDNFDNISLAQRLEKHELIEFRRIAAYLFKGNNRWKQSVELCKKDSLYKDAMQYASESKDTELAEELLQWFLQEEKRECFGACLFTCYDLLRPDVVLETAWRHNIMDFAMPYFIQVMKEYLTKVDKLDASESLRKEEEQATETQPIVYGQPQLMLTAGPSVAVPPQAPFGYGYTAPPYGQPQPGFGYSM

Results are given in words; binding and its absence hold for the method and conditions named. For some assays here: In cells and extracts the contact can be indirect. Some results given as binding are weak or reduced against the parent protein; the word gives no strength.

Assay [1] concerns the target Gal3∆Nter-6xHis (Gal3 mutant whose N-terminal oligomerization domain was deleted) (human) (UniProt P17931). Briefly: negative stain EM; Gal3 or Gal3∆Nter (4 μM, 2 h at 21 °C) on inactive rat α5β1 integrin in nanodiscs held on cobalt beads, washed, eluted with 50 μM I3; the eluted particles counted as monomers or ring-shaped oligomers; both purified.
In assay [2] the target is α5β1 integrin, endogenous in RPE-1 cells (human (endogenous in RPE-1)) (UniProt P08648+P05556). Briefly: co-IP; RPE-1 cells; 9EG7 (10 μg/mL) bound 30 min at 4 °C (active ligand-bound conformer); lysis; protein G-sepharose overnight at 4 °C; immunoblot for CHC.
The target in assay [3] is Gal3-CFP (human) (UniProt P17931). The assay can be described thus: co-IP; as a5 but with surface-bound 9EG7 (active ligand-bound conformer).
In assay [4] the target is Human recombinant Gal3-6xHis (human) (UniProt P17931). Briefly: pull-down; RPE-1 cells with or without sialidase (neuraminidase); SETA-555 labelled His-tagged Gal3 (5 μg/mL) and mAb13 (5 μg/mL) bound in turn at 4 °C; lysate on cobalt-coated beads overnight at 4 °C; mAb13 (bent-closed conformer) blotted; only the target purified.
Assay [5] has as its target Gal3-CFP (human) (UniProt P17931). The assay can be described thus: co-IP; cells transiently expressing Gal3-CFP; mAb13 (10 µg/mL) bound to the surface at 4 °C; lysis in TNE 1% NP40; GFP-Trap beads overnight at 4 °C; co-precipitated mAb13 (inactive bent-closed conformer) blotted.

Regarding “Gal3∆Nter-6xHis (Gal3 mutant whose N-terminal oligomerization domain was deleted) (from UniProt P17931 115-250) (domain or fragment)”, the binding entry in assay [1] is given as “no binding (tested: 4 µM)”.
As for “clathrin heavy chain (CHC) (from UniProt Q00610 1-1675)”, the binding result in assay [2] is “binds”.
On to “α5β1 integrin, endogenous in RPE-1 cells (from UniProt P08648 42-1049; P05556 21-798) (complex)”, for which the binding result is reported as “binds weakly” with Gal3-CFP (human) [3], “binds” in assay [4] and “binds” with Gal3-CFP (human) [5].
